One molecule from paper PMC3914973, “A Regulatory Feedback Loop between HIF-1α and PIM2 in HepG2 Cells” (PLoS ONE, 2014) can be followed below.

The target in this experiment is T1, His-PIM2 protein (human, UniProt Q9P1W9 1-311).
T1 construct: Serine/threonine kinase PIM2; also called His-tagged PIM2
In words: pull-down; GST pull-down: His-PIM2 mixed with GST or GST-HIF-1α (575-826aa) in PBS binding buffer pH 7.4 at 4°C for 2 h, Glutathione-Sepharose 4B beads 1 h, washed five times with PBS, western blot. Conditions: both partners purified. Background: A western blot detects proteins with antibodies after separation by electrophoresis.

B1: GST-HIF-1α ([…]aa) fusion protein (domain or fragment)
chain: not shown
notes: source: E. coli BL21 (DE3), purified (Glutathione-Sepharose 4B)
On to B1, for which the binding result is “binds”.
